Test results taken from PubChem BioAssay AID1240 (Sanford-Burnham Center for Chemical Genomics, 2008).
The whole screen tested about 50,000 compounds, of which about 800 (1.6%) showed an effect of 50% or more. Some of the results follow.

Target: Bcl-2-like protein 10 (Homo sapiens) (UniProt Q9HD36)
Assay: Phenotype converters, Bcl-B/TR3 peptide binding displacement, primary biochemical FP (AID 1240);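 also: 0% = Bcl-B with tracer peptide and DMSO and 100% = tracer peptide lacking Bcl-B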
Conditions: GST-Bcl-B / FITC-TR3 peptide fluorescence polarization; stronger effect = higher value; compound at 3.75 mg/L

Chain of UniProt Q9HD36 (Q9HD36 whole entry, looked up): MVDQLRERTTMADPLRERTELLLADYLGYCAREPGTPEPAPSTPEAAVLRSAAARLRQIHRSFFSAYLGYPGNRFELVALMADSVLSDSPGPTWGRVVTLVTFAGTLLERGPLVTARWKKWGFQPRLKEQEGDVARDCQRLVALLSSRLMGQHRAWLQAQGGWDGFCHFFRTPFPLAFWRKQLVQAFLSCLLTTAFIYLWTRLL

SMILES	displacement
O=C1CC(N2CCN(c3ccccn3)CC2)C(=O)N1c1ccc(Br)cc1 (configuration not stated)	10.9%
CC1=C(c2ccccc2)[N+](=O)C(C)(C)N1[O-]	7.8%
CC1CCCCN1C(=O)c1cc2nc(-c3cccs3)cc(C(F)(F)F)n2n1 (configuration not stated)	18.3%
Cc1cccc(NC(=O)c2ccc(NC(=O)COc3ccc(Cl)cc3Cl)cc2)c1	-11.4%
Cc1ccc(-n2nc3cc(C)c(NC(=O)COc4ccc(Cl)cc4)cc3n2)cc1	4.5%
Cc1ccc(N(CC(N)=O)S(=O)(=O)c2ccccc2)c(C)c1	8.3%
C/C=C/COC(=O)C1=C(C)NC(=O)NC1c1cccc(Br)c1 (configuration not stated)	3.2%
CCOC(=O)c1sc2nc(NC(=O)c3ccc([N+](=O)[O-])cc3)sc(=O)c2c1C	4.4%
COc1ccccc1NC(=O)Nc1cccnc1	-8.5%
COCCOC(=O)c1ccc(NC(=O)c2ccc(Cl)cc2)cc1	10.6%
O=C(O)CN1C(=O)/C(=C/c2ccc(OCc3ccc(Cl)cc3Cl)cc2)SC1=S	22.2%
O=C(Cc1ccc(F)cc1F)Nc1ccc(Cl)cc1Cl	6.9%
CCc1cc2c(C)cc(=O)oc2cc1OCC(C)=O	-5.2%
Cc1cnn(-c2cc(N/N=C/c3ccc(O)cc3)ncn2)c1	-4.5%
CC(C)c1ccc(N(CC(N)=O)S(=O)(=O)c2ccccc2)cc1	-5.2%
CCOc1ccccc1C1Nc2ccccc2NC2=C1C(=O)CC(c1ccc(OC)c(OC)c1)C2 (configuration not stated)	11.3%
O=C(/C=C/c1ccc(Cl)cc1Cl)Nc1c(F)c(F)c(F)c(F)c1F	-9.9%
O=C(NOC(=O)c1ccccc1I)c1ccc(Cl)cc1	2%
CCN(CC)C(=O)c1ccccc1NC(=O)c1ccccc1	21.3%
Cc1ccc(C(=O)Nc2ccc(Cl)cc2)cc1[N+](=O)[O-]	11%
CCc1ccc(C(C)NC(=O)Cc2ccccc2)cc1 (configuration not stated)	3.7%
CCOC(=O)C1=C(O)/C(=C/c2cccc([N+](=O)[O-])c2)SC1=Nc1cccc(Cl)c1	-10.2%
O=C(Cc1cccs1)N1CCN(c2cccc(Cl)c2)CC1	9.2%

SMILES	displacement
Cc1ccc(-c2ccc(OCC(=O)Nc3ccc(S(=O)(=O)Nc4onc(C)c4C)cc3)cc2)cc1	-1.3%
CC(=O)CC(=O)Nc1ccc2c(c1)OCO2	-8.9%
NS(=O)(=O)c1ccc(-c2ccc(/C=C3\Sc4ccccc4C3=O)o2)cc1	-71.8%
Cc1cc(/C=N/NC(N)=S)c(C)n1-c1ccc(Br)cc1	-21.7%
C=CCn1c(/N=C/c2ccc3c(c2)OCO3)nc2ccccc21	0%
CN(C)c1ccc(/C=C/C(=O)c2ccc(Br)cc2)o1	-16.1%
Cc1ccc(-n2c(C)c([N+](=O)[O-])c3ccc(O)cc32)cc1	7.6%
CC(=O)NC(C)C12CC3CC(CC(C3)C1)C2 (configuration not stated)	10.9%
COc1ccc(C(=O)N2CCC(c3ccccc3)C2)cc1 (configuration not stated)	10%
Cc1ccc(N(Cc2ccc(C(=O)Nc3cccc(Br)c3)cc2)S(C)(=O)=O)cc1C	6.6%
COc1cccc(OCCOc2cccc(/C=C3/SC(=S)NC3=O)c2)c1	3%
COc1ccc(NCN2C(=O)C3C4C=CC(C4)C3C2=O)cc1 (configuration not stated)	2.3%
CC(=O)Nc1ccc(NC(=O)c2cc(Cl)ccc2Cl)cc1	1.1%
O=C1C2C3C=CC(C3)C2C(=O)N1CCc1ccccc1 (configuration not stated)	10.1%
C=CCOc1ccc(/C=C/C(=O)c2ccc(Br)cc2)cc1	10%
COc1ccc(-c2nc3ccccc3o2)cc1NC(=O)c1ccc(Br)o1	63%
COc1ccc(OC)c(N/C(N)=N/c2nc(C(F)(F)F)cc(=O)[nH]2)c1	-70%
O=C(CCCN1C(=O)/C(=C\c2cccs2)SC1=S)Nc1ccc(F)c(Cl)c1	3.9%
COC(=O)C1=C(C)N=c2s/c(=C/c3cc(Br)ccc3OC(C)=O)c(=O)n2C1c1ccc(OC(C)=O)cc1 (configuration not stated)	4.4%
C=CCOC(=O)C1=C(C)NC(C)=C(C(=O)OCC=C)C1c1ccco1	7.5%
COc1ccc(C2c3c(n[nH]c3C)CC(C)(O)C2C(C)=O)cc1OC (configuration not stated)	-5.8%
CC(=O)Nc1ccc(S(=O)(=O)NNC(=O)c2ccc(-c3ccccc3)cc2)cc1	-3.8%
COc1ccc(Cl)cc1C(=O)Nc1nc2ccc(Cl)cc2s1	-3.9%

SMILES	displacement
O=C(c1ccc(Cl)cc1)N(c1ccc(Cl)cc1)C1C=CS(=O)(=O)C1 (configuration not stated)	-2.9%
OCCNC(=S)Nc1ccc2nc(-c3ccccc3)c(-c3ccccc3)nc2c1	35.9%
CCOC(=O)C(Cc1c[nH]c2ccccc12)NC(=O)c1cc2ccccc2oc1=O (configuration not stated)	11.4%
O=C(c1ccc([N+](=O)[O-])cc1)N1CCN(C2CCCC2)CC1	-8.6%
O=c1c2ccccc2nc(SCc2ccc([N+](=O)[O-])cc2)n1-c1ccccc1	-12.1%
O=C(COc1ccc(Cl)cc1)NNC(=O)Cc1cccc2ccccc12	-8.3%
CCc1cccc(C)c1NC1C=CS(=O)(=O)C1 (configuration not stated)	52.3%
O=C(CCCOc1ccc(Cl)c(Cl)c1)Nc1cccc2ccccc12	-2.7%
COc1cc(/C=N/n2c(C)nnc2C)cc(OC)c1O	-5.2%
CC(=O)NC1=NC(=O)/C(=C\c2cccc([N+](=O)[O-])c2)S1	-42.2%
COC(=O)C(C)Oc1cc2oc(=O)c3c(c2cc1Cl)CCC3 (configuration not stated)	7.8%
O=C(O)CP(=O)(c1ccccc1)c1ccccc1	-1.7%
Cc1ccc(C(=O)N2CCC(Cc3ccccc3)CC2)o1	6.7%
CCCCOC(=O)CCN1C(=O)/C(=C/c2ccc3c(c2)OCO3)SC1=S	6.9%
COc1ccccc1/C=C1\C(=O)Nc2ccccc21	7.9%
CCOC(=O)c1c(NC(=O)CN2CCN(C)CC2)sc2c1CCN(C(=O)OCC)C2	2.2%
CCC(=O)Nc1ccc(S(=O)(=O)N2CCCCCC2)cc1	6.5%
CCN1C(=O)/C(=C/c2ccc(OC(=O)c3ccc(F)cc3)c(OC)c2)SC1=S	-7.2%
CCc1ccc(/C=C2/C(=O)NC(=O)N(c3cccc(C)c3)C2=O)cc1	-8.7%
Cc1ccc(CNC(=O)C(=O)NCc2ccccc2)cc1	7.7%
Clc1ccc(OCCCN2CCCC2)cc1	11.6%
CC(C)CC(=O)Nc1ccc(F)c([N+](=O)[O-])c1	1.2%
Cc1cc2nc3n(c2cc1C)CCN3	-8.8%

SMILES	displacement
COc1ccc(S(=O)(=O)NNC(=O)c2cccc(Br)c2)cc1	1.4%
Cc1ccc(N2CN=C(c3ccccc3)NC2=S)cc1	14.2%
Nc1nnc(CC(=O)N/N=C/c2ccc(Cl)cc2Cl)s1	40.9%
Cc1ccc(NC(=O)c2cccs2)cc1	7.6%
CC(NC(=O)CN(c1cccc(C(F)(F)F)c1)S(C)(=O)=O)c1ccccc1 (configuration not stated)	0.7%
Cc1ccc(C(=O)Nc2cccc(O)c2)cc1S(=O)(=O)N1CCCCC1	-14.1%
COc1ccc(-c2nnc(-c3sc4cc(C)ccc4c3Cl)o2)cc1	-3.8%
O=C(c1ccc(F)cc1)c1ccc(N2CCOCC2)cc1	3.9%
CC(=O)Nc1cccc(NC(=O)c2ccccc2[N+](=O)[O-])c1	-0.5%
CCOC(=O)C12CC3CC(C1)CC(C(=O)OCC)(C3)C2	-7.4%
O=C(NC1CCS(=O)(=O)C1)/C(NC(=O)c1ccccc1)=C(/Sc1ccccn1)c1ccccc1 (configuration not stated)	8.5%
Cc1cccc(C(=O)O/N=C(\c2ccncc2)c2ccc([N+](=O)[O-])cc2)c1	4.4%
Cc1ccc(-c2cc(C(F)(F)F)n3ncnc3n2)cc1	2.3%
COC(=O)c1cc(NC(=O)C(C)Oc2ccccc2)cc(C(=O)OC)c1 (configuration not stated)	4.6%
CC(Oc1ccccc1)C(=O)Nc1cc(C(=O)Nc2ccccc2)ccc1Cl (configuration not stated)	1.2%
Cc1ccc(C(=O)/C=C/c2ccc(-c3ccc(Cl)cc3)o2)cc1	17.9%
O=[N+]([O-])c1ccc(OCC(O)CNc2ccccc2)cc1 (configuration not stated)	2.4%
CCOC(=O)c1c(-c2ccc(OC)cc2)csc1NC(=O)c1ccccc1Br	-0.3%
O=[N+]([O-])c1ccc(OCCN2CCOCC2)cc1	10.1%
CC(C)(C)NC(=O)CN(Cc1ccccc1)S(=O)(=O)c1ccc(Br)cc1	1.1%
CCOc1ccccc1NC(=O)c1c(NC(=O)COc2ccccc2)sc2c1CCC(C)C2 (configuration not stated)	-4.5%
Cc1c(NC(=O)c2ccc(Cl)c(Cl)c2)c(=O)n(-c2ccccc2)n1C	13.2%
COc1ccc(/C=C2\SC(=S)N(NC(=O)c3ccccc3C)C2=O)cc1	-9.5%

SMILES	displacement
Nc1nc(-c2ccc(Cl)cc2)c(-c2ccc([N+](=O)[O-])cc2)s1	5.6%
Cc1ccc2nsnc2c1NC(=O)S(=O)(=O)c1ccccc1	6.6%
CCCN1C(=O)c2ccccc2NC1c1ccc2c(c1)OCO2 (configuration not stated)	19.7%
CC1(C)CC(=O)c2nc(NC(=O)Cc3ccc(Cl)cc3)ncc2C1	-1%
COc1ccc(CCNC(=S)Nc2cccc(C(F)(F)F)c2)cc1OC	0.9%
Cc1c(C#N)c2nc[nH]c(=O)c2n1-c1ccccc1	-5.2%
O=S(=O)(Cc1ccccc1)CC(O)COCc1ccccc1 (configuration not stated)	13.2%
Cn1c(=O)c([N+](=O)[O-])c(N2CCN(c3ccccn3)CC2)c2ccccc21	2.2%
CCCC(NC(=O)c1ccccc1)C(=O)OCC(=O)Nc1nc2ccc(OC)cc2s1 (configuration not stated)	13.8%
CCc1ccc(CNCc2ccccc2OC)cc1	-20%
CC(C)=CCC(C)(C)CN(C=O)CC(C)(C)CC=C(C)C	-11.8%
Cc1cc(=O)oc2c(C)c(O)c([N+](=O)[O-])cc12	-2.7%
COc1ccc(/C=N/S(=O)(=O)c2cccs2)cc1	6.8%
O=C(Nc1ncccn1)c1ccc(Cl)s1	5.4%
O=C(Nc1ccc2c(c1)OCO2)c1nn2c(c1Cl)NC(c1cccs1)CC2C(F)(F)F (configuration not stated)	1.1%
Nc1ccc(S(=O)(=O)O)c2cccc(O)c12	1.8%
COc1ccc(CNc2cc([N+](=O)[O-])ccc2OC)c(OC)c1	-1.4%
CCN1CCN(S(=O)(=O)c2c(C)cc(C)cc2C)CC1	-3.8%
Brc1ccccc1/C=N\N1CCN(c2ccccc2)CC1	-13.8%
CN1CCN(C(=O)c2ccccc2NC(=O)Cc2ccccc2)CC1	-7.6%
